These results are taken from the supplement of paper PMC3334620.

Over roughly 33,000 sequences, “E-score (-0.5 to 0.5)” has its median near -0.043; the highest 2% begin near 0.37. The list shows a part of the results.

The assay addresses T1, Upc2 (UniProt Q12151).
T1 sequence: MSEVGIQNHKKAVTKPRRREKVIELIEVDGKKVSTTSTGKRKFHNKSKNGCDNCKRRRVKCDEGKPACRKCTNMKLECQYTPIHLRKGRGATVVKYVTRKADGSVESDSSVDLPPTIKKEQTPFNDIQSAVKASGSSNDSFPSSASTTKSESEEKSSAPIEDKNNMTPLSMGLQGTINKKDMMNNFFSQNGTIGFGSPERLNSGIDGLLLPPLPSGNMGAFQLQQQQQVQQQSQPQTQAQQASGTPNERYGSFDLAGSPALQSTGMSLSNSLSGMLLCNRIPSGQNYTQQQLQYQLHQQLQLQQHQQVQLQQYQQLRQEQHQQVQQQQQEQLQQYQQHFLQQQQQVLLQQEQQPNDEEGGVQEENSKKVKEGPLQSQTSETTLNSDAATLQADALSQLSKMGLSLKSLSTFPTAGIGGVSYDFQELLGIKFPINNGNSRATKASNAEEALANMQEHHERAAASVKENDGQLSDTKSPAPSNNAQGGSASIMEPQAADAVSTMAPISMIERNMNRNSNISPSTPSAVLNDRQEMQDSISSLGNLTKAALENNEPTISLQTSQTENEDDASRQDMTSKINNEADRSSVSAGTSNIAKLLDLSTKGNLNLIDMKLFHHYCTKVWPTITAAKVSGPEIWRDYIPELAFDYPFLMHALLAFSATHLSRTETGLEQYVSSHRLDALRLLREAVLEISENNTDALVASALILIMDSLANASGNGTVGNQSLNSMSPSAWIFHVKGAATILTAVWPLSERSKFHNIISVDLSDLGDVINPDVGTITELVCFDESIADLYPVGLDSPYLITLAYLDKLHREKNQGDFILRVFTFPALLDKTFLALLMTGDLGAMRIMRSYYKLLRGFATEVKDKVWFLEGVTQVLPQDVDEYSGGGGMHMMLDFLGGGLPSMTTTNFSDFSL
Kind of assay: PBM E-score (8-mer binding enrichment) (E-score (-0.5 to 0.5)); higher = stronger / more preferred TF binding; most listed sequences are background and not binding sites. As to conditions: protein concentration: 200 nM; construct: GST-full length. How it is done: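 Universal 'all 10-mer' protein binding microarrays (Agilent AMADID 015681) probed with GST-tagged S. cerevisiae TFs (full-length or DBD) made by in vitro transcription/translation (PURExpress), about 100-200 nM. Bound TF was detected with fluorescent anti-GST. Each ungapped 8-mer (which stands for itself and its reverse complement) is scored by the PBM enrichment score (E-score), a modified Wilcoxon-Mann-Whitney statistic from -0.5 to +0.5, computed with the Universal PBM Analysis Suite. Scale: above 0.35 generally sequence-specific binding.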
Regarding CACTATAG, the “PBM E-score” value is -0.0997. Consider GCTACATA, for which the “PBM E-score” value is -0.136. As to CCACGACC, the “PBM E-score” value is -0.102. As for AGCTACTC, the “PBM E-score” value was -0.129.

Turning to AAAATGGG, the “PBM E-score” value is -0.228. CACATTAC: the “PBM E-score” value amounted to 0.123. Consider AGCTCGGC, for which the “PBM E-score” value came out at 0.118. As for AGCCACTA, the “PBM E-score” value was -0.0515. Consider CGGTCATC, for which the “PBM E-score” value was -0.0276. Consider GGATTTAC, for which the “PBM E-score” value worked out at 0.00936. The figure for CCCCACGG is -0.0929. Consider GAATCTCA, for which the “PBM E-score” value is -0.11. As to CTCAGATC, the “PBM E-score” value is -0.131. On to GAAGGTAA, for which the “PBM E-score” value came to 0.0165. As for ACGTGCGG, the “PBM E-score” value turned out to be 0.033. Turning to CTCTTCTA, the “PBM E-score” value was -0.0366.

As to ATATCCTA, the “PBM E-score” value is -0.248. The figure for ACTAATGC is -0.0495; for AAGAACTG it is -0.0756; for ACGCCGTC it is -0.00209. On to TGTGGGAA, for which the “PBM E-score” value is -0.121. In the case of CCGACCTC, the “PBM E-score” value turned out to be 0.00754. The figure for CTCAGACA is -0.0805; for AATCATTG it is -0.147; for AGCCTGAT it is -0.204.

As to GGCGTCGA, the “PBM E-score” value is -0.0727. For ATACGCAC the value was 0.334.

Regarding ATCGTCCA, the “PBM E-score” value was -0.25.

Regarding ACGGAGTA, the “PBM E-score” value is 0.156. Turning to AGACATTG, the “PBM E-score” value is -0.211. Turning to TACTGAAA, the “PBM E-score” value is 0.0835.

On to GGCTAAGA, for which the “PBM E-score” value is -0.18. For AACCAGTT the value was 0.0333; for AGCGCCGG, -0.0104. With CGTACACC, the “PBM E-score” value turned out to be 0.382.

On to GCCCCGAC, for which the “PBM E-score” value is -0.0884. Regarding GGTTATGA, the “PBM E-score” value is 0.00464. For AAGCTCCC, the “PBM E-score” value is -0.109.

With CAGGCTCA, the “PBM E-score” value was -0.089. For GGTGATCA the value was -0.155; for TATTATAA, -0.00035. The figure for AGATGTCA is -0.221; for ACGTACAC it is 0.297; for ACGCGCGT it is 0.263.

AAAGGGCT: the “PBM E-score” value was -0.235. Turning to AGCCTCGG, the “PBM E-score” value is 0.0155.

Regarding AGGCCACT, the “PBM E-score” value is -0.203. As for TCGCAGAA, the “PBM E-score” value was -0.089.

AATAGTCT: the “PBM E-score” value was -0.0362. Regarding ATGTCGGC, the “PBM E-score” value was -0.205. In the case of TACCAAGA, the “PBM E-score” value was found to be 0.0928. For CCCCAGCA, the “PBM E-score” value was -0.179. Regarding GCAGTTGA, the “PBM E-score” value is -0.152. The figure for AACTGCCC is -0.152; for ACAGTTTC it is -0.0564. With CCAAAACG, the “PBM E-score” value stood at 0.114. Turning to TACACCAA, the “PBM E-score” value was -0.0956.

CCACAGGA: the “PBM E-score” value is -0.218. Take AAGAGCCC: the “PBM E-score” value is -0.19. Consider AGTCCAAA, for which the “PBM E-score” value was -0.172. Consider ACTTCAAT, for which the “PBM E-score” value is -0.0198. The figure for ATTGTTGC is -0.0274; for CTGGCGTC it is -0.0985; for CACCCGAC it is 0.0618. On to ATTCCCTA, for which the “PBM E-score” value is -0.203. In the case of AAGCGCCA, the “PBM E-score” value was -0.163. For the sequence CCTTTTCA, the “PBM E-score” value was -0.115.

For GAGCCATC, the “PBM E-score” value was -0.0969. Consider CCACGAAA, for which the “PBM E-score” value is -0.0902. For the sequence CCCTCCCG, the “PBM E-score” value is -0.0429. For CGACTCCG, the “PBM E-score” value was -0.0146. Turning to TGGGCAAA, the “PBM E-score” value is -0.165. Regarding AAATAATC, the “PBM E-score” value is 0.0127.

For ACGCGTTC, the “PBM E-score” value was found to be 0.174.

With AAAGCGCA, the “PBM E-score” value was -0.129. In the case of CTAAAATA, the “PBM E-score” value was -0.00736. As to CTTCCCCC, the “PBM E-score” value was -0.269. The figure for ATGCATAC is 0.197; for CATGCCAA it is -0.0735; for ATGAAAGA it is -0.033. Consider AACTCCCG, for which the “PBM E-score” value is 0.212. The figure for TTACTCAA is 0.0201. For ACTCGGCC the value was -0.048; for ATGTAGTG, -0.232; for GTTATAAA, 0.0516.

As for CTCACAGA, the “PBM E-score” value was -0.11.
